Measured values taken from the supplement of paper PMC11417369.
± gives the standard deviation of the averaged measurements. This is one part of the list.

What follows are sequences tested on PfAP2-EXP AP2 domain (GST-tagged) (assay: gcPBM binding intensity (ln(normalized median fluorescence intensity)); higher = stronger DNA binding).
How it was run: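 For binding intensity, the highest Masliner-normalised natural-log median intensity across replicate spots of either probe orientation was taken. Protein bound to the array was stained with Alexa488 anti-GST antibody and scanned at 488 nm. The protein, GST-tagged P. falciparum DNA-binding domains from E. coli at about 25 μg on average, had been applied for 1 h to an Agilent 4 × 180k array of primer-extended double-stranded 36-bp intergenic genomic probes and negative controls.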
For “TTATTTTAAATTAACACATGCATAATATATGTATAT [TGCATGCA_site597]”, the “gcPBM binding intensity (ln)” value was 8.48 ± 0.23. “TTTATGAAACAGTGCACACATAAAAATAAATACATA [CACACA_site5631]” was tested, and the “gcPBM binding intensity (ln)” value was 9.175 ± 0.035. In the case of “AAAAAAATTTTAAAATGTACAAATTTTAATATATAT [XGTACX_site7628]”, the “gcPBM binding intensity (ln)” value is reported as 8.55 ± 0.26. “TTTTCAAAAATATACACACACATAAATATATGTATA [CACACA_site777]” was tested, and the “gcPBM binding intensity (ln)” value was 8.22 ± 0.34. For “CCATGTCAAACATTTGCACACAAAAAAATAAAAATT [CACACA_site4546]”, the “gcPBM binding intensity (ln)” value was 8.49 ± 0.5. In the case of “AGGTTGAATATATATTTGTGATTATATTATTTTATT [CACACA_negctrl_site778]”, the “gcPBM binding intensity (ln)” value is reported as 8.43 ± 0.42. “TATATATATATATAATGTACAAACTCCTTTATATAT [XGTACX_site4545]” was tested, and the “gcPBM binding intensity (ln)” value was 10.1 ± 0.3. For “GTTTTTTTTATATATTGTACAAATAATATATTATAT [XGTACX_site29]”, the “gcPBM binding intensity (ln)” value was 9.02 ± 0.37. “TCATTCAAAAAAAATCAACACACAGTTACATAGCTC [CACACA_site8700]” was tested, and the “gcPBM binding intensity (ln)” value was 8.64 ± 0.52. With “TTTTAAAACTACATTGGTACACAATAAAAAAAAAAA [XGTACX_site2793]” the “gcPBM binding intensity (ln)” value was 8.72 ± 0.49. For “TTTTAAAAAAAAAAAATAAATAAATAAGATATTATC [CACACA_negctrl_site1791]”, the “gcPBM binding intensity (ln)” value was 8.22 ± 0.37. For “AAAAAAAAAAAAAAAGCACACATATAAATATGAATA [CACACA_site8391]”, the “gcPBM binding intensity (ln)” value was 8.41 ± 0.24. For “TCATATATATTATACACACACATATATAAATATATA [CACACA_site967]”, the “gcPBM binding intensity (ln)” value was 8.46 ± 0.45. With “AACACCAAACTAAATGTACACACATACATAAATATA [CACACA_site8298]” the “gcPBM binding intensity (ln)” value was 8.58 ± 0.38. With “AATATAAACACAAACACACACATATATATATATATA [CACACA_site4307]” the “gcPBM binding intensity (ln)” value was 10.1 ± 0.29. “TTATTTAAACAAATCACACACAAATATAAATACATA [CACACA_site5158]” was tested, and the “gcPBM binding intensity (ln)” value was 8.61 ± 0.52. For “CATCCAAAAATATTATGTACTAAATTTGGATGTATT [XGTACX_site3954]”, the “gcPBM binding intensity (ln)” value was 8.48 ± 0.47. With “TATAAAATTATGTGTACACAAATATAACTTTTCTTT [CACACA_site5554]” the “gcPBM binding intensity (ln)” value was 8.48 ± 0.23. In the case of “TATTCATATTCCAAGTGTACACATAAATCCCTAATA [XGTACX_site4131]”, the “gcPBM binding intensity (ln)” value is reported as 8.88 ± 0.43. With “AAAATATTTCTTCTTTGTACTTATATATATTTAATT [XGTACX_site5446]” the “gcPBM binding intensity (ln)” value was 8.81 ± 0.48. “TACTTACCTATAATAACACACAAGAAAAAAATAAAA [CACACA_site6616]” was tested, and the “gcPBM binding intensity (ln)” value was 8.58 ± 0.47. In the case of “AAATAATATCATAAATGTACATATATCATATTATTA [XGTACX_site5372]”, the “gcPBM binding intensity (ln)” value is reported as 8.29 ± 0.36. In the case of “AAATTATAGAATCATTGTACTTTTTTTTTTTTTTTT [XGTACX_site1280]”, the “gcPBM binding intensity (ln)” value is reported as 8.62 ± 0.16. For “CTCATCCTTACATACACACACATATATTTATTTATA [CACACA_site6202]”, the “gcPBM binding intensity (ln)” value was 8.99 ± 0.39. In the case of ATAATAACTTGTAAGGTGCATTTTATGTTTTCTTAA, the “gcPBM binding intensity (ln)” value is reported as 8.63 ± 0.085. “AGAAATAATATTATTCAAGTATTTATTTAATTTTCA [GTGCAC_negctrl_site475]” was tested, and the “gcPBM binding intensity (ln)” value was 8.01 ± 0.35. In the case of “TATGCTTCAAAATTGTGTACATATATAATATATTAT [XGTACX_site6760]”, the “gcPBM binding intensity (ln)” value is reported as 8.79 ± 0.34. With “TTAATAATTATAACATGTACATACACTAAATTTTTT [XGTACX_site8953]” the “gcPBM binding intensity (ln)” value was 8.7 ± 0.35. For “CAAATATATATTTATTGTACATATTGTTTATATGGT [XGTACX_site5246]”, the “gcPBM binding intensity (ln)” value was 8.77 ± 0.49. With “AAATATTTATATGTTACACACTGTTTATAATTTTCT [CACACA_site4868]” the “gcPBM binding intensity (ln)” value was 8.51 ± 0.36. In the case of “CAATGTATTTAGAATACATGCATATTTTCATAATGT [TGCATGCA_site221]”, the “gcPBM binding intensity (ln)” value is reported as 8.6 ± 0.028. For “AATTATGCACAAATCACACATATAAAATAAAAAGTG [CACACA_site4474]”, the “gcPBM binding intensity (ln)” value was 8.87 ± 0.26. In the case of “GTGGTATAAATTTTATGTACTTAATAACTCATTAAT [XGTACX_site5555]”, the “gcPBM binding intensity (ln)” value is reported as 8.54 ± 0.33. “AAAAATATTTAAAATACACACATATCTATAATATAT [CACACA_site7032]” was tested, and the “gcPBM binding intensity (ln)” value was 8.4 ± 0.24. In the case of “ACATATATATTTATATGTACATATATTTATATATAT [XGTACX_site7469]”, the “gcPBM binding intensity (ln)” value is reported as 8.41 ± 0.23. With “AATTCTTTACTATTCACACATATAAATATTCACTTT [CACACA_site4886]” the “gcPBM binding intensity (ln)” value was 8.72 ± 0.4. With “CAAAATGTTAAAGATACACACCTAACAAACACAAAA [CACACA_site4685]” the “gcPBM binding intensity (ln)” value was 8.74 ± 0.51. With “AAATCCATATAGGATTGTACATATATTATATATATA [XGTACX_site8818]” the “gcPBM binding intensity (ln)” value was 8.84 ± 0.11. In the case of “AAAAAAAAAAAACACACACACACAAATACATACACA [CACACA_site706]”, the “gcPBM binding intensity (ln)” value is reported as 8.6 ± 0.6. For “TTTAATTTATATAATGATATTAAGTTGGTTATTAGG [CACACA_negctrl_site329]”, the “gcPBM binding intensity (ln)” value was 8.16 ± 0.37. With “ACAAAAATGAGATGGTGTACGCACAAATAAATAATA [XGTACX_site5221]” the “gcPBM binding intensity (ln)” value was 9.07 ± 0.35. With “ATATAGTTTCACATGTGTACATAAAAATACACTTGT [XGTACX_site3339]” the “gcPBM binding intensity (ln)” value was 8.35 ± 0.2. “TTACGATTAAATATAACACACAACATATTTTTAATA [CACACA_site2967]” was tested, and the “gcPBM binding intensity (ln)” value was 8.24 ± 0.37. “ATTATATTCTCCTTCACACACAAAAATATTTCATCA [CACACA_site5326]” was tested, and the “gcPBM binding intensity (ln)” value was 8.73 ± 0.45. For “AAGGATATGAAAAGTAGTACAAAATTTAGAACACCC [XGTACX_site4758]”, the “gcPBM binding intensity (ln)” value was 9.17 ± 0.37. In the case of “CACAAAAATTTATACACACACATATATAATATATAT [CACACA_site152]”, the “gcPBM binding intensity (ln)” value is reported as 8.59 ± 0.21. With “AAGTATTACAACCACACACACACCTATATATCATAG [CACACA_site7878]” the “gcPBM binding intensity (ln)” value was 8.66 ± 0.47. In the case of “ATCTTTTACGAATACACACACATAAAGAAAAAAAAA [CACACA_site1331]”, the “gcPBM binding intensity (ln)” value is reported as 8.56 ± 0.42. With “ATTTCAAATTAATTTACACACTTCATACTAAAAGAC [CACACA_site3176]” the “gcPBM binding intensity (ln)” value was 8.7 ± 0.35. For “TTGATATATAATAATACACACTTACATAATTAATTA [CACACA_site4320]”, the “gcPBM binding intensity (ln)” value was 8.38 ± 0.35. With “TATATATATATATATACACACATATACATATTGTTT [CACACA_site3499]” the “gcPBM binding intensity (ln)” value was 10.2 ± 0.32. In the case of “TCCTACATATAAAAATGTACCCATTGTTTTTTTTTT [XGTACX_site7205]”, the “gcPBM binding intensity (ln)” value is reported as 8.46 ± 0.44. “AATGTATATAGAAACATGCACACGTGGTTGTATATA [CACACA_site3278]” was tested, and the “gcPBM binding intensity (ln)” value was 8.89 ± 0.49. For “TTGTGTTAACTACCATGTACTTATACATCATAGGAA [XGTACX_site6627]”, the “gcPBM binding intensity (ln)” value was 8.43 ± 0.36. For “ATTTATGTTATATATACACACACAAAAGAAAAAAAA [CACACA_site8977]”, the “gcPBM binding intensity (ln)” value was 8.53 ± 0.47. In the case of “TTTTTGTATGCTTCCCGATTACATTATGTTGTAAAT [CACACA_negctrl_site227]”, the “gcPBM binding intensity (ln)” value is reported as 9.01 ± 0.41. “TTTTTTATAAATCAAATGAAAAATAAACTATTCAGA [CACACA_negctrl_site1568]” was tested, and the “gcPBM binding intensity (ln)” value was 8.05 ± 0.46.
